Data published in article PMC4336329 (PLoS ONE, 2015).
The whole screen tested about 310,000 compounds, of which about 2,200 (0.71%) showed an effect of 50% or more. Effects have a minus sign here. The list shows a part of the results.

What follows are compounds tested against human ether-à-go-go-related gene (hERG) potassium channel (human, UniProt Q12809) (assay: primary screen, population patch clamp on CHO cells stably expressing hERG).
Chain of human ether-à-go-go-related gene (hERG) potassium channel (Q12809 whole entry, looked up): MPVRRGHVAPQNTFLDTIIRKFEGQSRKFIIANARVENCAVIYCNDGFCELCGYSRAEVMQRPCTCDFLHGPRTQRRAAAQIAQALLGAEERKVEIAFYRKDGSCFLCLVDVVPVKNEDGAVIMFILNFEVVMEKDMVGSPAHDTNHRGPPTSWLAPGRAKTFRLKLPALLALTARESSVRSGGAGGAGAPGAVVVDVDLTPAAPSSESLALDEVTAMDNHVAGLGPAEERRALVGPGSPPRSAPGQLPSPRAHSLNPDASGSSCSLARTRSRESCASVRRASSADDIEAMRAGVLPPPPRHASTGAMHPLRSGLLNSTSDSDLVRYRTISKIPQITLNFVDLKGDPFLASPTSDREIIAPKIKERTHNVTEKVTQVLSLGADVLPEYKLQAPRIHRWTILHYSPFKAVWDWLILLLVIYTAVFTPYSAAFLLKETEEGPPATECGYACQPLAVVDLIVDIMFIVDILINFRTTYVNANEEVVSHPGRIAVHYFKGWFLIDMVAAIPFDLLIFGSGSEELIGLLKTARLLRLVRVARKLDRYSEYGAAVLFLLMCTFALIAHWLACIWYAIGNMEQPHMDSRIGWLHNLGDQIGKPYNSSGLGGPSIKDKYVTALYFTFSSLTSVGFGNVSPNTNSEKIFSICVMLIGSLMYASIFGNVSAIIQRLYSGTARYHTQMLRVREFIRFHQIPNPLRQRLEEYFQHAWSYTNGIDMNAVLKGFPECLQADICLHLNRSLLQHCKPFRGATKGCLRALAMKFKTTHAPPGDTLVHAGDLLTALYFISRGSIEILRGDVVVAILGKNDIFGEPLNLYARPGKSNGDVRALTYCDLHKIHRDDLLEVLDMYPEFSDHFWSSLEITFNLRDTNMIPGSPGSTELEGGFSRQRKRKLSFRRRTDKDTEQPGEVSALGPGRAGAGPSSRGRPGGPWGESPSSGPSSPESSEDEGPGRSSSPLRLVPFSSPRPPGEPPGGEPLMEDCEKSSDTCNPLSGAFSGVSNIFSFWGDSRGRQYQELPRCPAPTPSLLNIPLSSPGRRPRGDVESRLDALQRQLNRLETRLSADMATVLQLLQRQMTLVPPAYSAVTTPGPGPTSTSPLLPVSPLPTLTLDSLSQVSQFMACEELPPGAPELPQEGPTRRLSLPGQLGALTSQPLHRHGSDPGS

Question: `O=C(NC1CC2CCC(C1)N2Cc1ccco1)c1ccccc1` (stereo not shown) was tested. Which “hERG current change (%, negative = inhibition) at 1uM” value did it give?
Answer: Its value is -4.4%.

Question: Which “hERG current change (%, negative = inhibition) at 1uM” value does the source give for `Nc1c2c(nc3sc4c(c13)CCCC4)CCCCCC2` here?
Answer: The value was -2.18%.

Question: How did the “hERG current change (%, negative = inhibition) at 1uM” value turn out when `O=C1/C(=C/c2ccncc2)Oc2cc(OS(=O)(=O)c3ccccc3)ccc21` was run?
Answer: The value was 10%.

Question: `CC(C)Cc1ccc(S(=O)(=O)N2CCN(c3ccccn3)CC2)cc1` was tested. Which “hERG current change (%, negative = inhibition) at 1uM” value did it give?
Answer: Its value is 14.5%.

Question: Which “hERG current change (%, negative = inhibition) at 1uM” value does the source give for `O=C(CC1C(=O)N(c2ccccc2)C(=S)N1c1ccccc1)c1ccc(Br)cc1` (stereo not shown) here?
Answer: Its value is 23.3%.

Question: `NC(=O)CSc1nnc2sc3ccccc3n12` was tested. Which “hERG current change (%, negative = inhibition) at 1uM” value did it give?
Answer: The value was 2.33%.

Question: How did the “hERG current change (%, negative = inhibition) at 1uM” value turn out when `O=C(NCC(=O)N(Cc1ccco1)C(C(=O)NC1CCCC1)c1cccnc1)c1ccco1` (stereo not shown) was run?
Answer: The value was 8.21%.

Question: How did the “hERG current change (%, negative = inhibition) at 1uM” value turn out when `CCNc1nc(Nc2ccc(C)c(Cl)c2)c2cnn(C)c2n1` was run?
Answer: The value was 11.6%.

Question: Which “hERG current change (%, negative = inhibition) at 1uM” value does the source give for `COC(=O)C1=C(C)NC2=C(C(=O)CCC2)C1c1cn(Cc2ccc(Cl)cc2Cl)nc1-c1ccccc1` (stereo not shown) here?
Answer: The value was 6.08%.

Question: With `COc1ccc(C2C3=C(N=C4SCC(=O)N42)c2ccccc2CC3)cc1OC` (stereo not shown) as the compound, how does the “hERG current change (%, negative = inhibition) at 1uM” value read?
Answer: Its value is 1.06%.

Question: With `CSc1ccccc1OCc1cc(C(=O)NCCN2CCCc3ccccc32)no1` as the compound, how does the “hERG current change (%, negative = inhibition) at 1uM” value read?
Answer: The value was 13.1%.

Question: Which “hERG current change (%, negative = inhibition) at 1uM” value does the source give for `CCOc1ccc2nc(-c3ccc(OC)c(OC)c3)cc(C(=O)O)c2c1` here?
Answer: The value was 15.4%.

Question: `Cc1ccc(COC(=O)c2nn(-c3ccccc3)nc2N)cc1` was tested. Which “hERG current change (%, negative = inhibition) at 1uM” value did it give?
Answer: The value was 4.86%.

Question: For `O=C(CNCc1ccncc1)Nc1cc(S(=O)(=O)N2CCCCC2)ccc1Cl`, which “hERG current change (%, negative = inhibition) at 1uM” value is on record?
Answer: The value was -9.39%.

Question: For `Brc1cccc(-c2nnc(SCc3nc4ccccc4[nH]3)o2)c1`, which “hERG current change (%, negative = inhibition) at 1uM” value is on record?
Answer: Its value is 3.25%.

Question: For `Nc1nc(SCC(=O)O)[nH]c(=O)c1NC(=O)c1ccco1`, which “hERG current change (%, negative = inhibition) at 1uM” value is on record?
Answer: The value was 8.65%.

Question: For `COc1cc(CNC2CCCC2)c(Br)cc1OCc1ccccc1.Cl`, which “hERG current change (%, negative = inhibition) at 1uM” value is on record?
Answer: Its value is -8.41%.

Question: For `O=S(=O)(Nc1ccc(N2CCCCC2)cc1)c1ccc(F)cc1`, which “hERG current change (%, negative = inhibition) at 1uM” value is on record?
Answer: Its value is 13.2%.

Question: For `CC12CCC(=O)N1C(C(=O)NCCc1ccc(S(N)(=O)=O)cc1)CS2` (stereo not shown), which “hERG current change (%, negative = inhibition) at 1uM” value is on record?
Answer: Its value is 18.7%.

Question: How did the “hERG current change (%, negative = inhibition) at 1uM” value turn out when `COC(=O)Cn1cnc2sc(C)c(S(=O)(=O)N3CCC(C)CC3)c2c1=O` was run?
Answer: Its value is 12.2%.

Question: `CCCCCCC1CC(=O)NC(=S)N1` (stereo not shown) was tested. Which “hERG current change (%, negative = inhibition) at 1uM” value did it give?
Answer: The value was 8.17%.

Question: With `CCCCC1OC23CCCCC2C(C#N)(C(=N)O3)C1(C#N)C#N` (stereo not shown) as the compound, how does the “hERG current change (%, negative = inhibition) at 1uM” value read?
Answer: Its value is 4.59%.

Question: Which “hERG current change (%, negative = inhibition) at 1uM” value does the source give for `COc1ccc(C(=O)C(OC(=O)c2ccccc2)c2ccccc2)cc1` (stereo not shown) here?
Answer: The value was 2.14%.

Question: With `COc1ccc(NC(=O)C2CCCN(S(=O)(=O)c3ccc(Cl)cc3)C2)cc1OC` (stereo not shown) as the compound, how does the “hERG current change (%, negative = inhibition) at 1uM” value read?
Answer: The value was 10.9%.

Question: For `Cc1ccc(C(=O)NCCCNCCCNC(=O)c2ccc(C)nc2)cn1`, which “hERG current change (%, negative = inhibition) at 1uM” value is on record?
Answer: The value was -10.3%.
